Measurements published in PubChem BioAssay AID1457 (National Center for Advancing Translational Sciences (NCATS), 2008).
The campaign covered roughly 210,000 compounds. About 730 (0.35%) were called active. Inconclusive means that the source gave no clear call. Such entries were picked first, then a sample of the others. Calls come from the whole dose curve; as a rule, active = well fitted inhibition curve with a large enough effect; inconclusive = small, poorly fitted or top-dose-only effect; inactive = no such curve, though single readings can be large or run the other way. Potencies of inconclusive entries are doubtful fits and often do not repeat.

Experiment: qHTS Assay for Identifying the Cell-Membrane Permeable IMPase Inhibitors: Potentiation with Lithium; note: nearly all actives have a fitted effect of over 50% in size
Conditions: CHO-M1 cells, IP1 TR-FRET (IP-One), carbachol + lithium; series mostly up to 59.4 µM
Summary of the method: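 Steps: plate 2000 CHO-M1 cells per well and culture 16–30 h; add compound and lithium; incubate 30 min, 37C; add d2-IP1 tracer and Eu cryptate anti-IP1 antibody in lysis buffer; read after 10 min at room temperature.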
Potency is the fitted concentration of half-maximal effect.

Compound	Potency
COc1cc(NC(=O)c2cc3ccccc3o2)c(OC)cc1Br	inconclusive: 22.4 µM [inhibitor, single point]
N#Cc1ccccc1Sc1ccccc1C(=O)OCC(=O)NC1CCCCC1	inconclusive: 28.2 µM [inhibitor, single point]
CCOC(=O)N1CCN(c2cc(NCCO)c([N+](=O)[O-])c3nonc23)CC1	inactive
CCCCN1CN=C(Nc2nc3ccccc3o2)NC1	inconclusive: 0.355 µM [inhibitor, partial curve, poor fit]
CCOc1ccc(C(=O)Nc2nnc(NC(=S)Nc3ccccc3)s2)cc1	inactive
O=C(O)c1cc(-c2ccncc2)nc2ccccc12	inactive
N#Cc1ccccc1NC(=O)c1ccc(-c2ccccc2Cl)o1	inconclusive: 28.2 µM [inhibitor, single point]
Cc1cccc2cc(C#N)c(NCCNC(=O)NC3CCCCC3)nc12	inconclusive: 28.2 µM [inhibitor, single point]
CCCn1c(C(O)c2ccc3c(c2)OCO3)nc2ccccc21 (stereo not given)	inactive
CCc1c(C)sc(NC(=O)c2cc(-c3cc(OC)ccc3OC)on2)c1C#N	inconclusive: 8.91 µM [inhibitor, single point]
CSc1cc(-c2ccccc2)[nH]c(=O)c1C#N	inconclusive: 10 µM [inhibitor, partial curve]
CCOC(=O)c1ccc2c(c1)nc(SCC(=O)N1CCCCC1)n2CC	inconclusive: 0.501 µM [inhibitor, full curve, poor fit]
COc1ccc(C(=O)Nc2ccc3c(c2)Cc2ccccc2-3)cc1	inconclusive: 22.4 µM [inhibitor, single point]
Cc1ccc(C(=O)NCCSCc2ccc(Cl)cc2Cl)cc1[N+](=O)[O-]	inactive
COc1ccc(N=C2C(=Nc3ccc(OC)cc3)N(c3ccc(OC)cc3)C(=S)N2c2ccccc2)cc1	inactive
Cc1n[nH]c(=S)c2nn(-c3ccccc3F)c(C)c12	inconclusive: 11.2 µM [inhibitor, single point]
Cc1cccnc1NC(=S)Nc1ccc(Br)cc1Cl	inactive
COC1=CC(=O)C(O)=C/C1=C\C=C\c1ccccc1	inactive
CN(c1ccccc1)S(=O)(=O)c1ccc(C(=O)Nc2nnc(-c3ccco3)o2)cc1	inconclusive: 3.55 µM [inhibitor, single point]
CCN(CC)CCCC(C)NC(=O)c1ccc(C(F)(F)F)cc1 (stereo not given)	inconclusive: 3.16 µM [inhibitor, single point]
CN(C)Cc1c(O)c(Cl)cc2c3c(c(=O)oc12)CCCC3	inconclusive: 11.2 µM [inhibitor, single point]
CC(O)CNC12CC3CC(CC(C3)C1)C2 (stereo not given)	inconclusive: 3.55 µM [inhibitor, full curve, poor fit]
COc1ccc(Nc2nc(C)nc3c2nnn3Cc2ccccc2)cc1OC	inconclusive: 28.2 µM [inhibitor, single point]

Compound	Potency
Cc1ccc(NC(=O)C2CC(=O)N/C(=N/N=C/c3ccco3)S2)cc1C (stereo not given)	inactive
N#Cc1ccc(-c2ccc(F)cc2)nc1SCC(=O)Nc1sc2c(c1C#N)CCC2	inconclusive: 28.2 µM [inhibitor, single point]
Cc1ccc(-c2cc(C#N)c(=O)n(Cc3c(Cl)cccc3Cl)c2)cc1	inconclusive: 28.2 µM [inhibitor, single point]
CCc1cc2cc(C)c(C)cc2nc1SCC(=O)Nc1cc(C)on1	inconclusive: 28.2 µM [inhibitor, single point]
C/C(=N\NS(=O)(=O)c1ccc(C)c([N+](=O)[O-])c1)c1cc2ccccc2o1	inactive
CCN(CC)S(=O)(=O)c1ccc2[nH]cc(C(=O)NCCc3ccccc3)c(=O)c2c1	inconclusive: 22.4 µM [inhibitor, single point]
Cc1cccc(CC(=O)Nc2cc(C)c3c(=O)oc4ccccc4c3n2)c1	inconclusive: 28.2 µM [inhibitor, single point]
Cc1ccc(C2(C)NC(=O)N(CC(=O)Nc3cccnc3Cl)C2=O)cc1 (stereo not given)	inconclusive: 5.01 µM [inhibitor, single point]
CN1/C(=C\C(=O)C[n+]2ccc3ccccc3c2)C(C)(C)c2ccccc21	inactive
O=C(Nc1ccccc1)Nc1ccncc1	inconclusive: 5.01 µM [inhibitor, single point]
S=C(Nc1ccc2c(c1)Cc1ccccc1-2)Nc1ccc2c(c1)Cc1ccccc1-2	inconclusive: 3.55 µM [inhibitor, single point]
O=C(CSc1ccc(-c2ccc3c(c2)OCO3)nn1)Nc1nccs1	inconclusive: 14.1 µM [inhibitor, single point]
O=C(Cc1ccccc1)Nc1nc(=O)c2ccccc2s1	inconclusive: 28.2 µM [inhibitor, single point]
Cc1cccc(N2CCN(C(=S)Nc3ccc4nc(N5CCOCC5)cc(C)c4c3)CC2C)c1 (stereo not given)	inconclusive: 28.2 µM [inhibitor, single point]
COc1ccc(NC(=O)CSc2nc(-c3ccc(C)cc3)cc(C(F)(F)F)c2C#N)cc1	inconclusive: 25.1 µM [inhibitor, single point]
COc1cc(C(=O)NC(=S)Nc2ccc3oc(=O)ccc3c2)cc(OC)c1OC	inconclusive: 22.4 µM [inhibitor, single point]
CN(c1cccc(NS(=O)(=O)c2cccs2)c1)S(C)(=O)=O	inactive
CCc1ccc(C2C(C#N)=C(N)SC(N)=C2C#N)cc1	inconclusive: 3.16 µM [inhibitor, full curve, poor fit]
COc1ccc(-n2nc(C(=O)NCc3cc(OC)ccc3OC)c3c4ccccc4n(C)c3c2=O)cc1	inconclusive: 22.4 µM [inhibitor, single point]
S=c1nccc(-c2cc(Cl)sc2Cl)[nH]1	active: 11.2 µM
O=C(Nc1cccc(C(F)(F)F)c1)c1cnc2n(c1=O)CCS2	inconclusive: 25.1 µM [inhibitor, single point]
COC(=O)c1c(NC(=S)Nc2ccc(C(=O)N3CCOCC3)cc2)sc2c1CCC2	inconclusive: 28.2 µM [inhibitor, single point]
